# Hit rate of the full screen: of about 310,000 compounds, about 14,000 (4.5%) showed an effect of 50% or more. Effects have a minus sign here. Some of the results follow.
# Molecular target: human ether-à-go-go-related gene (hERG) potassium channel (human, UniProt Q12809)
# Test: primary screen, population patch clamp on CHO cells stably expressing hERG
# 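Note: peak tail current of the secondary pulse compared with the same well before compound.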
# Chain of human ether-à-go-go-related gene (hERG) potassium channel (Q12809 whole entry, looked up): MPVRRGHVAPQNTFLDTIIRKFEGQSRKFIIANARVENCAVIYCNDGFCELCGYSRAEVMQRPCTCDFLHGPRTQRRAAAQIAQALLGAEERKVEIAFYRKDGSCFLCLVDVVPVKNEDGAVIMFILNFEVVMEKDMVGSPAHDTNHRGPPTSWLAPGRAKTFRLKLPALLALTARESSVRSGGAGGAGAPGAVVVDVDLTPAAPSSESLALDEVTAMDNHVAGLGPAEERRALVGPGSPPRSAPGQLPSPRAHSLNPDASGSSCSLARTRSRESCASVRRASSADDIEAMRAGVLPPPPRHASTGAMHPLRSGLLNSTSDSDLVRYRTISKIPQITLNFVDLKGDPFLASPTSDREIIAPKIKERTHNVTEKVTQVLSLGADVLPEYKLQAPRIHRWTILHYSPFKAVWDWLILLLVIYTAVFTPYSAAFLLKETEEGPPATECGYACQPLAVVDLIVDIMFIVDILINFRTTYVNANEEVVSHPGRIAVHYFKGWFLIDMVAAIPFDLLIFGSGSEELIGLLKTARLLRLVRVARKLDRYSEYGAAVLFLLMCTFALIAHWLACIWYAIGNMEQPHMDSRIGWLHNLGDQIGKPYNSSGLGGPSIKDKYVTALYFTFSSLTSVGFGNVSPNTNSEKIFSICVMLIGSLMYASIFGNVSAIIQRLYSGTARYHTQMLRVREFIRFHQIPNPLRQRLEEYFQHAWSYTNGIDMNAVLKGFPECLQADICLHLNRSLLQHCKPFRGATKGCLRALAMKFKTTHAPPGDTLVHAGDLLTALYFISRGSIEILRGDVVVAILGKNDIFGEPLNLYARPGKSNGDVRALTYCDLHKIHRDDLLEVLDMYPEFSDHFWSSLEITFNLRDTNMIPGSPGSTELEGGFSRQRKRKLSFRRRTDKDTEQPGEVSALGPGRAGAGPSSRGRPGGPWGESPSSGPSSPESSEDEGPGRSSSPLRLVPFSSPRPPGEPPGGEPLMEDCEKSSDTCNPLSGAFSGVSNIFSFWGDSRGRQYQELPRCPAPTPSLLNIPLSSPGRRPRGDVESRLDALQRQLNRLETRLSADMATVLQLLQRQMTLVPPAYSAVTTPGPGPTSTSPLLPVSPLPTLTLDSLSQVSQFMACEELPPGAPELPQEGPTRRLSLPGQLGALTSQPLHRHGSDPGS
row,Structure (SMILES),"hERG current change (%, negative = inhibition) at 10uM [%]"
1,CCN1C[C@]2(COC)CC[C@H](O)[C@]34C1[C@](O)([C@@H](OC)[C@H]23)[C@@]1(O)C[C@H](OC)[C@H]2C[C@@H]4[C@@H]1[C@H]2OC,14.1
2,COc1ccc(CC(=O)N2CCCC2)c(OC)c1,11.8
3,O=C(NCc1ccccc1)c1cc[n+](Cc2ccccc2)cc1.[Cl-],13.6
4,CC(C)c1nnc(NC(=O)CCC(=O)N2CCN(Cc3ccc(F)cc3)CC2)s1,-0.0872
5,O=C(C1=C(O)C(=O)N(CCCn2ccnc2)C1c1cccc(Br)c1)c1ccco1 (stereo not drawn),26.2
6,COc1ccc(NC(=O)C(C)N2c3cccc4cccc(c34)S2(=O)=O)c(OC)c1 (stereo not drawn),2.69
7,COc1ccc(NC(=O)COC(=O)/C=C/c2ccccc2[N+](=O)[O-])cc1,-16.3
8,O=S(=O)(Cc1ccccc1Cl)c1ncn[nH]1,14.2
9,Cc1ccc(CNC(=O)CSc2nc(C)cc(C)c2C#N)cc1,9.59
10,Cc1ccc(S(=O)(=O)N2CCC(C(=O)NC3CC3)CC2)cc1,-5.59
11,COC(=O)c1sccc1NC(=S)Nc1cc(C)ccc1OC,14.9
12,N#CC1=C(N)N=C(SCc2cccc3ccccc23)C(C(N)=O)C12CCCCC2 (stereo not drawn),3.79
13,CNC(=O)COC(=O)c1cc(-c2ccccc2)nn1-c1ccccc1,-5.35
14,CCC(CC)c1nnc(NC(=O)COc2ccc3c(c2)OCO3)s1,13.1
15,COc1ccc(OC)c(/C=N/NC(=O)Cn2ccnc2C)c1,14.8
16,CC(C)C12CCC(C(=O)O)C(C1)C(=O)O2 (stereo not drawn),13.9
17,CC(=O)C1=C(C)NC(SCC(=O)c2ccccc2)=C(C#N)C1CC(C)C (stereo not drawn),-7.38
18,Cc1ccc(Nc2cc(C)nc(N3CCOCC3)n2)c(C)c1,3.67
19,COc1cc(/C=N/NC(=O)c2sc3nc(C)cc(C)c3c2N)ccc1O,-6.25
20,CC(=O)c1c(C)[nH]c(C(=O)OCC(=O)N2CCc3ccccc3C2)c1C,-13.9
21,C=C(C)CNC(=S)/N=c1\scc(C)n1CC,-0.245
22,CCOC(=O)c1ccc(S(=O)(=O)NNC(=O)c2cccc(N(C)C)c2)cc1,22.4

row,Structure (SMILES),"hERG current change (%, negative = inhibition) at 10uM [%]"
1,O=C(Cn1c[n+](CC(=O)c2ccc([N+](=O)[O-])cc2)cn1)c1ccc([N+](=O)[O-])cc1.[Br-],21.3
2,O=C(COC(=O)c1cccs1)NCc1ccccc1,14.6
3,O=C(COC(=O)c1ccccn1)Nc1ccc2c(c1)OCO2,-65.5
4,CC(NC(=O)NC12CC3CC(CC(C3)C1)C2)c1ccc2c(c1)OCO2 (stereo not drawn),0.0168
5,Cc1cc(NC(=O)C(C)SCC(=O)OC(C)C(=O)Nc2cccc(C#N)c2)no1 (stereo not drawn),-9.69
6,CS(=O)(=O)c1cccc(S(=O)(=O)N2CCN(c3ccccn3)CC2)c1,-8.6
7,O=C(NC1CCCC1)C1CCN(C(=O)NCc2ccccc2)CC1,-1.23
8,Cc1cc(C)cc(OCCNC(=O)c2ccc(Br)cc2)c1,30.5
9,CCOc1cc2nc3c4ccccc4n(C)c3nc2cc1OCC,15.4
10,COc1ccc(-n2nc(C(=O)NCC(=O)NCc3ccco3)c3ccccc3c2=O)c(OC)c1,11.3
11,CNc1ccc(Cl)nn1,18.6
12,O=C(NCCc1ccc(OC(F)F)cc1)C1CC(=O)N(c2ccc3c(c2)OCCO3)C1 (stereo not drawn),-47.6
13,O=C(c1cc(-c2ccc(F)cc2)nc2ccccc12)N1CCN(C2CCS(=O)(=O)C2)CC1 (stereo not drawn),-69
14,N=c1c2c(-c3ccccc3)c(-c3ccccc3)n(Cc3ccco3)c2ncn1Cc1ccccc1,-69.3
15,Cc1cc(C)c(S(=O)(=O)N(CC(=O)O)C2CCCCC2)c(C)c1,-1.08
16,CCOC(=O)c1c(-c2cccc([N+](=O)[O-])c2)csc1NC(=O)C1CC1,-1.41
17,COc1cc(CN2CCC(n3nccc3NC(=O)C3CCOC3)CC2)ccc1F (stereo not drawn),-6.78
18,Cc1ccccc1CN1CCN(C(=O)c2ccc(F)cc2)CC1.O=C(O)C(=O)O,9.11
19,COc1ccc(NC(=O)c2ccccc2NS(=O)(=O)c2ccc(C)cc2)c([N+](=O)[O-])c1,9.99
20,COCCNc1nnc(Cc2ccc(OC)c(OC)c2)c(=O)[nH]1,0.23
21,COCC1CCCN(Cc2cn[nH]c2-c2cc3ccccc3o2)C1 (stereo not drawn),-47.5
22,Cc1cc(C)nc(NC(=O)c2cccs2)n1,11.5

row,Structure (SMILES),"hERG current change (%, negative = inhibition) at 10uM [%]"
1,COCc1c(C(=O)N/N=C/c2c[nH]c3ccccc23)nnn1-c1nonc1N,18.2
2,Cc1cc(Cl)ccc1NC(=O)CN1CCCC1,27.1
3,O=C(OCC1COc2ccccc2O1)c1c(F)cccc1F (stereo not drawn),5.16
4,COc1ccc(Cn2nnnc2CN2CCC(O)(c3ccccc3F)CC2)cc1,-5.36
5,COc1ccc(CCn2c3c(c(=O)[nH]c2=O)C(NC(=O)c2cccs2)(C(F)(F)F)C(=O)N3)cc1OC (stereo not drawn),6.47
6,N#CCCN(Cc1ccccc1)C(=O)Nc1ccccc1,18.5
7,Cc1ccc(C)c(OCCSc2nnc(-c3cccnc3)n2N)c1,10.3
8,CN[C@H]1CCc2cc(OC)c(OC)c(OC)c2-c2ccc(N(C)CC(OC)OC)c(=O)cc21,23.5
9,O=C(CSC(=S)N1CCOCC1)Nc1nc(-c2ccccc2)c(-c2ccccc2)o1,8.56
10,CC(NC(=O)Nc1cccc([N+](=O)[O-])c1)(C(F)(F)F)C(F)(F)F,15.5
11,COc1ccc(C(=O)CSc2nnc(-c3ccco3)o2)cc1,18.8
12,O=C(Nc1ccccc1OC(F)F)c1oc2ccccc2c1COc1ccccc1,0.283
13,NC(=NC1CCCCC1)NS(=O)(=O)c1ccccc1,13.6
14,O=C(O)CCCC(=O)NCCc1cccc(Cl)c1,10.3
15,CCOc1ccc(NC(=O)CSc2nnc(C34CC5CC(CC(C5)C3)C4)n2C)cc1,-0.647
16,O=C(Nc1ccccc1C(=O)N/N=C/c1ccccc1)c1ccco1,-2.78
17,Cc1ccccc1C(=O)N1CCN(c2nc(N3CCOCC3)nc(N3CCOCC3)n2)CC1,8.56
18,CCOc1ccc(Br)cc1C(=O)N/N=C/c1c[nH]c2ccccc12,21.5
19,O=C(CCl)NCCCCCCCCCNC(=O)CCl,9.69
20,Cc1cc(/C=N/O)c(C)n1-c1ccccc1,12.8
21,CCN(CC)CCNC(=O)c1ccc2c(c1)NC(=O)c1ccccc1S2,-31.9
22,Cc1cc(NC(=O)C(C)SCC(=O)Nc2ccc(SC(F)F)cc2)no1 (stereo not drawn),-32.7

row,Structure (SMILES),"hERG current change (%, negative = inhibition) at 10uM [%]"
1,C=CCNC(=O)NS(=O)(=O)c1ccc(C)cc1,16.2
2,Cc1ccc(S(=O)(=O)NC(=O)NCc2ccc3c(c2)OCO3)cc1,13.7
3,CCOc1ccc2[nH]c3ncccc3c(=O)c2c1,18
4,COc1ccc(NC(=O)COc2ccc(C(=O)NCc3cccnc3)cc2OC)cc1,-6.31
5,CC(C)c1cc(C(=O)NCCc2ccccc2)no1,-40.1
6,COc1ccc(CN(C)C(=O)/C=C/c2ccc(S(=O)(=O)N3CCCCCC3)cc2)cc1,-6.95
7,CC(=O)c1cccc(NC(=O)c2ccoc2C)c1,-0.456
8,CN(C)C=O.N=C1C(c2nc(-c3ccc(Br)cc3)cs2)=C(O)CN1NC(=O)c1ccc([N+](=O)[O-])cc1,14.5
9,Cc1ccc(-n2nc(C(=O)c3ccccc3)n3c(=O)cc(-c4ccccc4)nc23)cc1,11.4
10,CN(Cc1ccccc1)CC(O)COc1ccc(CNCCc2ccncc2)cc1 (stereo not drawn),-17.5
11,Cc1cccn2c(=O)c(/C=C(\C#N)S(=O)(=O)c3ccccc3)c(N3CCN(C)CC3)nc12,-45.5
12,Cn1c(=O)c2c(nc(NN=C3CCCC3)n2C)n(C)c1=O,12.7
13,CC(C)Oc1cccc(-c2nnc(SCC(=O)Nc3ccc4c(c3)OCCO4)n2N)c1,-8.81
14,COC(=O)c1ccc(NC(=O)c2c(C(=O)Nc3ccccc3)sc3nc(C)cc(=O)n23)cc1,15.3
15,COc1ccc(S(=O)(=O)n2c([N+](=O)[O-])cnc2C)cc1OC,19.1
16,Cc1cc(C)nc(N2CCN(c3ccc(F)cc3)CC2)n1,13.2
17,NC(=O)C1CCN(C2=C(NS(=O)(=O)c3ccc(Cl)cc3)C(=O)c3ccccc3C2=O)CC1,-38.3
18,CCCCn1c(N)c(N(CCC(C)C)C(=O)CC2CCCC2)c(=O)[nH]c1=O,14.9
19,CN1/C(=C\C(=O)COC(=O)CNC(=O)c2ccc3ccccc3c2)C(C)(C)c2ccccc21,-20.4
20,CCCCCc1ccc(-c2nnc(N)s2)cc1,13.6
21,COc1cc(CN2CCSCC2)c([N+](=O)[O-])cc1OC,-9.35
